# This is one part of the list.
# Biological target: T1, MBP-FoxP1dN (Mus musculus, UniProt P58462 326-579)
# T1 sequence: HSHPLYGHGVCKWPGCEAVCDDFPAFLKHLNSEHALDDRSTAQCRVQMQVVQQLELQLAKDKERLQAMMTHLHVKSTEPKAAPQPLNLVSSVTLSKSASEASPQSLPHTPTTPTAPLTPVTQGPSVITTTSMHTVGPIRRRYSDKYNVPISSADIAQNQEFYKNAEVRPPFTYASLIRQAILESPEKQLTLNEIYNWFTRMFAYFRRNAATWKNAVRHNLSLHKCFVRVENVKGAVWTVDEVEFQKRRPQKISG
# Test: PD-seq (MBP pull-down with sequencing); 20 mM Tris-HCl pH 7.5, 100 mM NaCl, 1.5 mM MgCl2, 0.4 uM protein, 0.1 uM dsDNA library, 30 min, room temperature, amylose pull-down; high values mean tight binding
# Settings: protein: recombinant; tags: His6-MBP; chain copies: 2; dsDNA, one strand shown
# Method in brief: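 Binding is reads-per-million enrichment of pull-down over input, with replicates pooled. It comes from 30 min room-temperature incubation in Tris pH 7.5 buffer with NaCl and MgCl2 of 0.4 µM His6-MBP-tagged, N-terminally truncated mouse FoxP3 or FoxP1 fragment from E. coli with 0.1 µM Klenow-filled degenerate double-stranded DNA library, followed by amylose resin capture, three washes and Illumina sequencing of the released DNA.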
row,Sequence,binding signal
1,GATGATTGTTCTCCCAGCTGATGAATTGGAGGAATCGAGTAAACAAATTTTCCTAATCTTTCTGTTCAAGCGCCATCTAC,0.873 RPM ratio (pull-down/input)
2,GATGATTGTTCTCCCAGCTGATGAATTATGGCAATCGAGTAAACAAATTTTCCTAATCTTTCTGTTCAAGCGCCATCTAC,1.23 RPM ratio (pull-down/input)
3,GATGATTGTTCTCCCAGCTGATGAATTCTCGTCGTCGAGTAAACAAATTTTCCTAATCTTTCTGTTCAAGCGCCATCTAC,0.825 RPM ratio (pull-down/input)
4,GATGATTGTTCTCCCAGCTGATGAATTGTCTTCGTCGAGTAAACAAATTTTCCTAATCTTTCTGTTCAAGCGCCATCTAC,1.07 RPM ratio (pull-down/input)
5,GATGATTGTTCTCCCAGCTGATGAATTAGGCTGATCGAGTAAACAAATTTTCCTAATCTTTCTGTTCAAGCGCCATCTAC,0.857 RPM ratio (pull-down/input)
6,GATGATTGTTCTCCCAGCTGATGAATTTCCTCGCTCGAGTAAACAAATTTTCCTAATCTTTCTGTTCAAGCGCCATCTAC,0.827 RPM ratio (pull-down/input)
7,GATGATTGTTCTCCCAGCTGATGAATTGAAATTGTCGAGTAAACAAATTTTCCTAATCTTTCTGTTCAAGCGCCATCTAC,1.01 RPM ratio (pull-down/input)
8,GATGATTGTTCTCCCAGCTGATGAATTCAAGTTATCGAGTAAACAAATTTTCCTAATCTTTCTGTTCAAGCGCCATCTAC,0.942 RPM ratio (pull-down/input)
9,GATGATTGTTCTCCCAGCTGATGAATTTGTGCTATCGAGTAAACAAATTTTCCTAATCTTTCTGTTCAAGCGCCATCTAC,1.26 RPM ratio (pull-down/input)
10,GATGATTGTTCTCCCAGCTGATGAATTGAGCGAGTCGAGTAAACAAATTTTCCTAATCTTTCTGTTCAAGCGCCATCTAC,0.833 RPM ratio (pull-down/input)
11,GATGATTGTTCTCCCAGCTGATGAATTAGCAGCTTCGAGTAAACAAATTTTCCTAATCTTTCTGTTCAAGCGCCATCTAC,0.836 RPM ratio (pull-down/input)
12,GATGATTGTTCTCCCAGCTGATGAATTATAATCTTCGAGTAAACAAATTTTCCTAATCTTTCTGTTCAAGCGCCATCTAC,0.909 RPM ratio (pull-down/input)
13,GATGATTGTTCTCCCAGCTGATGAATTCCGACGCTCGAGTAAACAAATTTTCCTAATCTTTCTGTTCAAGCGCCATCTAC,0.889 RPM ratio (pull-down/input)
14,GATGATTGTTCTCCCAGCTGATGAATTGGATTTGTCGAGTAAACAAATTTTCCTAATCTTTCTGTTCAAGCGCCATCTAC,0.979 RPM ratio (pull-down/input)
15,GATGATTGTTCTCCCAGCTGATGAATTATCATACTCGAGTAAACAAATTTTCCTAATCTTTCTGTTCAAGCGCCATCTAC,0.998 RPM ratio (pull-down/input)
16,GATGATTGTTCTCCCAGCTGATGAATTCCACTAGTCGAGTAAACAAATTTTCCTAATCTTTCTGTTCAAGCGCCATCTAC,0.775 RPM ratio (pull-down/input)
17,GATGATTGTTCTCCCAGCTGATGAATTTCACCCGTCGAGTAAACAAATTTTCCTAATCTTTCTGTTCAAGCGCCATCTAC,0.867 RPM ratio (pull-down/input)
18,GATGATTGTTCTCCCAGCTGATGAATTCCTCGGTTCGAGTAAACAAATTTTCCTAATCTTTCTGTTCAAGCGCCATCTAC,0.776 RPM ratio (pull-down/input)

# — publication PMC12820563, “FoxP3 forms a head-to-head dimer in vivo and stabilizes its multimerization on adjacent microsatellites”
